From the supplement of paper PMC4967469 come the findings set out here.

What all share (assay): Viability of human cancer cell lines after 72 h of drug (GDSC screen)
Compound in test [1]: Cc1cc([N+](=O)[O-])ccc1NS(=O)(=O)c1cc(Cl)ccc1Cl [FH535]
Conditions: top dose 32 µM; top dose inferred. The method, then: (§1)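 Human cancer cell lines in 384-well plates, medium with 10% serum, drug for 72 h over a 256-fold dose range (nine 2-fold or five 4-fold steps up to the top dose). Adherent lines were fixed and stained with the nucleic acid dye Syto60, suspension lines read with resazurin; signal relative to control wells, capped at 0 and 100%. One two-parameter sigmoid per drug and line, fitted in a mixed model over all curves with the slope shared within a line.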

Compound in test [2]: COc1cc(N2CCN(C)CC2)ccc1Nc1nc(N)c(C(=O)c2c(Cl)cccc2Cl)s1 [XMD14-99]
Conditions: top dose 10.24 µM; top dose inferred. The method, then: as §1

Compound in test [3]: O=C(NC1CCNCC1)c1n[nH]cc1NC(=O)c1c(Cl)cccc1Cl [AT-7519]
Conditions: top dose 10.24 µM; top dose inferred. The method, then:
as §1

By IC50 is meant the dose at which the fit gives 50% viability; a fit beyond the top or the lowest dose is shown as a bound at that dose. The AUC spans the tested range (256-fold, ending at the top dose) of the same fit: 1 means no effect, lower means more sensitive. Where the top dose is marked as inferred, it is not printed in the source and was worked back from the curve model.

The IC50 is the concentration that gives 50% inhibition. On to “BEN (non-small cell lung carcinoma, adherent)”, for which the AUC in test [1] is 0.509; in test [2] it was 0.982; in test [3] it was 0.914. Besides, the IC50 is 2.12 µM in test [1], more than 10.2 µM in test [2] and more than 10.2 µM in test [3].

Take CCK-81 (large intestine, adherent): the AUC in test [1] is 0.758; in test [2] it was 0.99; in test [3], 0.854. The concentration for half-maximal inhibition (IC50) in test [1] is 10.5 µM; in test [2] it was more than 10.2 µM; in test [3], 7.31 µM.

Consider SK-HEP-1 (liver, adherent), for which the figures for the AUC in test [1], in test [2] and in test [3] were 0.565, 0.989 and 0.988, respectively. Further, the IC50 is 2.98 µM in test [1], more than 10.2 µM in test [2] and more than 10.2 µM in test [3].

With HCC1937 (breast, adherent), the AUC came to 0.695 in test [1], 0.985 in test [2] and 0.759 in test [3]. The IC50 in test [1] was 7.72 µM; in test [2], more than 10.2 µM; in test [3] it was 4.08 µM.

On to HPAF-II (pancreas, adherent), for which the values for the AUC in test [1], in test [2] and in test [3] were 0.7, 0.981 and 0.674, respectively. The values for the IC50 in test [1], in test [2] and in test [3] were 8.81 µM, more than 10.2 µM and 2.28 µM, respectively.

“NCI-H2030 (lung adenocarcinoma, adherent)”: the AUC in test [1] came out at 0.656; in test [2], 0.973; in test [3] it was 0.537. Further, the half-maximal inhibitory concentration (IC50) in test [1] is 5.78 µM; in test [2], more than 10.2 µM; in test [3] it was 0.816 µM.

In the case of OVISE (ovary, adherent), the AUC is 0.671 in test [1], 0.981 in test [2] and 0.594 in test [3]. The half-inhibitory concentration (IC50) in test [1] was 7.08 µM; in test [2] it was more than 10.2 µM; in test [3], 1.26 µM.

For the cell line PE/CA-PJ15 (head and neck, adherent), the AUC came to 0.943 in test [1], 0.985 in test [2] and 0.83 in test [3]. The IC50 in test [1] is more than 32 µM; in test [2], more than 10.2 µM; in test [3], 7.16 µM.

With NUGC-3 (stomach, adherent), the AUC worked out at 0.614 in test [1], 0.981 in test [2] and 0.746 in test [3]. In addition, the IC50 in test [1] is 4.3 µM; in test [2], more than 10.2 µM; in test [3] it was 3.59 µM.

As for KYSE-410 (oesophagus, adherent), the AUC in test [1] turned out to be 0.672; in test [2] it was 0.981; in test [3], 0.691. Moreover, the half-inhibitory concentration (IC50) in test [1] is 6.23 µM; in test [2] it was more than 10.2 µM; in test [3] it was 2.29 µM.

In the case of SW620 (large intestine, adherent), the AUC in test [1] came out at 0.614; in test [2] it was 0.939; in test [3] it was 0.495. The results for the IC50 in test [2] and in test [3] were more than 10.2 µM and 0.623 µM, respectively.

With SW1783 (glioma, adherent), the AUC in test [1] was 0.666; in test [2], 0.99; in test [3] it was 0.972. Also, the values for the concentration for half-maximal inhibition (IC50) in test [1], in test [2] and in test [3] were 5.5 µM, more than 10.2 µM and more than 10.2 µM, respectively.

On to HCC1500 (breast, adherent), for which the AUC in test [1] worked out at 0.427; in test [2], 0.988; in test [3] it was 0.491. Further, the IC50 in test [1] was 1.26 µM; in test [2], more than 10.2 µM; in test [3], 0.602 µM.

On to KON (head and neck, adherent), for which the AUC in test [1] was 0.657; in test [2] it was 0.987; in test [3], 0.95. For the same cell line, the IC50 was 5.41 µM in test [1], more than 10.2 µM in test [2] and more than 10.2 µM in test [3].

As to BxPC-3 (pancreas, adherent), the results for the AUC in test [1], in test [2] and in test [3] were 0.678, 0.98 and 0.526, respectively. Moreover, the IC50 is 6.71 µM in test [1], more than 10.2 µM in test [2] and 0.76 µM in test [3].

On to H290 (mesothelioma, adherent), for which the AUC in test [1] was determined as 0.727; in test [2], 0.988; in test [3], 0.88. Also, the IC50 was 8.28 µM in test [1], more than 10.2 µM in test [2] and 9.07 µM in test [3].

As to Ca9-22 (head and neck, adherent), the AUC worked out at 0.646 in test [1], 0.988 in test [2] and 0.63 in test [3]. Further, the values for the half-maximal inhibitory concentration (IC50) in test [1], in test [2] and in test [3] were 4.91 µM, more than 10.2 µM and 1.42 µM, respectively.

For the cell line PFSK-1 (medulloblastoma, adherent), the results for the AUC in test [1], in test [2] and in test [3] were 0.66, 0.983 and 0.43, respectively. For the same cell line, the concentration for half-maximal inhibition (IC50) in test [1] was 5.72 µM; in test [2] it was more than 10.2 µM; in test [3] it was 0.406 µM.

As to T-T (oesophagus, adherent), the AUC in test [1] was determined as 0.56; in test [2], 0.972; in test [3], 0.867. For the same cell line, the half-maximal inhibitory concentration (IC50) in test [1] was 2.91 µM; in test [2] it was more than 10.2 µM; in test [3] it was 9.16 µM.
